The source of these data is PMC4336329 (PLoS ONE, 2015).

Among all 310,000 compounds or so, about 2,200 (0.71%) showed an effect of 50% or more. The effect is printed as a negative number. Some of the results follow.

This experiment deals with human ether-à-go-go-related gene (hERG) potassium channel (human, UniProt Q12809). Briefly: primary screen, population patch clamp on CHO cells stably expressing hERG.
Chain of human ether-à-go-go-related gene (hERG) potassium channel (Q12809 whole entry, looked up): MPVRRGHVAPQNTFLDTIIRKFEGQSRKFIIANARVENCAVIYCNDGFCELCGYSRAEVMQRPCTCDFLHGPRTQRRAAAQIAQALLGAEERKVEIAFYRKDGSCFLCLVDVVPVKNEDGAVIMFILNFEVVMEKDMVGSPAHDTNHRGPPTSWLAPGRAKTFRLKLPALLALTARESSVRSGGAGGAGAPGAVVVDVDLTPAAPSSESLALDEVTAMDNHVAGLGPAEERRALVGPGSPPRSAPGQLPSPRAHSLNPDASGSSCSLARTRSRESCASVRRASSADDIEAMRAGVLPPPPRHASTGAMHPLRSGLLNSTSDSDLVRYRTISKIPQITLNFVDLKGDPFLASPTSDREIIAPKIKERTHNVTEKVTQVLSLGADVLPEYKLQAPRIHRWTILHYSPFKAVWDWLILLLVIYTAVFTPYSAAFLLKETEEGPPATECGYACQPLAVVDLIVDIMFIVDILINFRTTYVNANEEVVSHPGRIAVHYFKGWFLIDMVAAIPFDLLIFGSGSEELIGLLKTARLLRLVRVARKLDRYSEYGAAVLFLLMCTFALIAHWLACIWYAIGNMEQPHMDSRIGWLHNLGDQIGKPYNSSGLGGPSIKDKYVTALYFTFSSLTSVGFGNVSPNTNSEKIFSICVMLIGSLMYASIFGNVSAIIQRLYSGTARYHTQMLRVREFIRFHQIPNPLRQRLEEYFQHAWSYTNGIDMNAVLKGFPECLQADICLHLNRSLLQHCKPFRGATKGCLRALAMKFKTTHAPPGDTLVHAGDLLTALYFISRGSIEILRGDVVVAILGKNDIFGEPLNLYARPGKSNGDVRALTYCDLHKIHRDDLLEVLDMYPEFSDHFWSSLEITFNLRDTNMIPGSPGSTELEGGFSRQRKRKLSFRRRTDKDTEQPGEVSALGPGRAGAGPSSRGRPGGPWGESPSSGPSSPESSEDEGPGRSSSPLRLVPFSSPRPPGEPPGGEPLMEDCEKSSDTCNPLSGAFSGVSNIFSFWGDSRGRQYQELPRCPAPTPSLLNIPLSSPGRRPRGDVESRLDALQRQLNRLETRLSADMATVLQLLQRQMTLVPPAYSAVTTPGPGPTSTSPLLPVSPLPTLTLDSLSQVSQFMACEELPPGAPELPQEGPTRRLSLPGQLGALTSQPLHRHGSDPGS
On to `CCOC(=O)N1CCN(CC(=O)Nc2nnc(C(F)(F)F)s2)CC1`, for which the “hERG current change (%, negative = inhibition) at 1uM” value was 20.1%. Regarding `COc1ccc(CN(C(=O)CSc2nnc(-c3c[nH]c4ccccc34)o2)c2ccc(F)cc2)cc1OC`, the “hERG current change (%, negative = inhibition) at 1uM” value is 3.73%. To `Cc1cc(SCc2ccccc2)nc(=O)[nH]1` belongs 11.7%; to `COCCN(C)Cc1nc(C(c2ccccc2)c2ccccc2)no1`, 7.37%; to `C[C@@H]1CN(Cc2nc(Cc3ccccc3F)no2)C[C@H](C)O1`, 8.68%. Turning to `Cc1cnc2cc([N+](=O)[O-])ccc2n1`, the “hERG current change (%, negative = inhibition) at 1uM” value was 4.37%. To `CCN1CC(CN(C)Cc2cn(-c3cccc(C)c3)nc2-c2cccc(F)c2)CC1=O` (centres unmarked) belongs 9.85%; to `C(=N\n1cnc2ccccc21)/c1cccnc1`, 3.25%; to `CCN(CC)S(=O)(=O)c1ccc(N2CCCCC2)c(NC(=O)/C(C#N)=C/c2ccc(OC)cc2)c1`, 7.89%. The value for `NC(=O)C1CCN(c2nc(C3CC3)nc3c2nnn3Cc2ccccc2Cl)CC1` was 11%; that for `O=C(O)CC(Cc1ccc(Cl)cc1)C(=O)NCC12CC3CC(CC(C3)C1)C2` (centres unmarked) was 14%.

On to `CCCCCCOC(=O)C(C#N)c1nc2ccccc2nc1N1CCN(CC)CC1` (centres unmarked), for which the “hERG current change (%, negative = inhibition) at 1uM” value is listed as 12.4%.

Turning to `O=C(Nc1cccc(Cl)c1)c1nc[nH]c1C(=O)NCc1ccccc1`, the “hERG current change (%, negative = inhibition) at 1uM” value is on record as -0.909%. As for `O=C(O)CCc1ccc(NCc2cccc(Oc3ccccc3)c2)cc1`, the “hERG current change (%, negative = inhibition) at 1uM” value stood at 19.5%.

With `CC(C)Oc1cccc(C(=O)Nc2ccc(Br)cc2F)c1`, the “hERG current change (%, negative = inhibition) at 1uM” value was 10.7%. To `COc1ccc2c(c1)[nH]c1c(=O)n(/N=C/c3ccc(OC)c(COc4ccccn4)c3)cnc12` belongs 16.3%. Regarding `CCN(CC(=O)Nc1cccc(S(=O)(=O)N2CCCCC2)c1)Cc1ccccc1`, the “hERG current change (%, negative = inhibition) at 1uM” value is given as -0.224%. On to `FC(F)(F)c1ccc(N2CCN(c3ncnc4c3nnn4Cc3ccccc3)CC2)nc1`, for which the “hERG current change (%, negative = inhibition) at 1uM” value was 1.18%. To `Cc1cccc(NC2SC(=O)N(c3ccccc3)C2=O)c1` (centres unmarked) belongs 13.5%; to `O=C(Nc1cccc(-n2cnnn2)c1)c1ccc(Cl)cc1Cl`, 13.5%; to `CCN1C(=O)/C(=C2\Sc3ccccc3N2CC)OC1=S`, 15.2%. To `Cc1ccc(N2CCN(S(=O)(=O)c3c(C)nc4scc(C)n4c3=O)CC2)c(C)c1` belongs 15.3%. To `COc1cc(SC)ccc1C(=O)OCC(=O)NC1CCCC1` belongs 9.49%. As for `O=C(O)CC(SCC(=O)Nc1ccc(S(=O)(=O)N2CCCC2)cc1)C(=O)O` (centres unmarked), the “hERG current change (%, negative = inhibition) at 1uM” value came out at 9.33%. In the case of `CN(C)CCCN(C(=O)c1sc2ccccc2c1Cl)c1nc2c(F)cccc2s1.Cl`, the “hERG current change (%, negative = inhibition) at 1uM” value is reported as 8.6%. The value for `CCCCN1C(=O)C(NC(=O)c2cccnc2)(C(F)(F)F)C2=C1CC(C)(C)CC2=O` (centres unmarked) was 3.61%; that for `N#Cc1c(Nc2ccccc2)sc(C(=O)c2ccccc2)c1N` was 5.63%. The value for `O=C(O)c1cc(NN=Nc2cccc(S(=O)(=O)O)c2)cc([N+](=O)[O-])c1` was 5.21%. To `CCNC(=O)NC(=O)CSc1nnc(-c2c[nH]c3ccccc23)o1` belongs 4.23%; to `O=C(Oc1cccccc1=O)c1ccccc1`, 5.12%.

Take `O=C(COc1cc(Cl)ccc1Cl)Nc1nnc(C2CC2)s1`: the “hERG current change (%, negative = inhibition) at 1uM” value turned out to be 12.5%. The value for `O=C(CCCc1c[nH]c2ccccc12)N1CCN(c2ccc(N3CCOCC3)nn2)CC1` was -0.829%; that for `Cc1cccc(N2CCN(CC(=O)NCc3ccc(Cl)cc3)CC2)c1C` was -3.16%; that for `COCCCn1c(SCC(=O)NC(C)C)nnc1-c1ccccc1` was -0.766%.

With `Cc1cc(C)c(NC(=O)c2cccc(NC(=O)c3ccco3)c2)c(C)c1`, the “hERG current change (%, negative = inhibition) at 1uM” value is 5.91%. To `O=C(O)CC1S/C(=N/N=C/c2ccccn2)NC1=O` (centres unmarked) belongs 15.3%; to `Cc1nnsc1C(=O)Nc1ccccc1Cl`, 2.59%. To `COc1cccc(/C=C2/C(=O)NN(c3ccc(C)c(C)c3)C2=O)c1` belongs 3.12%; to `Cc1cccc(CCNC(=O)C2CCC(=O)N2Cc2ccc(F)cc2)c1` (centres unmarked), -0.0467%; to `NC(=S)NN=C(Cc1ccccc1)Cc1ccccc1`, 8.05%. The value for `CCOC(=O)N1CCN(C(=O)c2cc(COc3ccc(OC)cc3Cl)on2)CC1` was 9.02%. For the molecule `Cc1cc(C)cc(NC(=O)CS(=O)(=O)c2ccccc2)c1`, the “hERG current change (%, negative = inhibition) at 1uM” value was found to be 15.4%. As to `COc1ccc(NC(=O)CN2C(=O)CSC(C)C2=O)cc1` (centres unmarked), the “hERG current change (%, negative = inhibition) at 1uM” value is 8.98%. The value for `COc1ccc2cc(C(=O)OC(C)C)sc(=O)c2c1OC` was 7.17%.
